Data taken from PubChem BioAssay AID1347417 (National Center for Advancing Translational Sciences (NCATS), 2020).
Hit rate of the full screen: of about 120,000 compounds, about 5,300 (4.4%) were called active. The inconclusive results got no clear call from the source; some entries with a clear call stand among them for comparison. Calls come from the whole dose curve; as a rule, active = well fitted inhibition curve with a large enough effect; inconclusive = small, poorly fitted or top-dose-only effect; inactive = no such curve, though single readings can be large or run the other way. Potencies of inconclusive entries are doubtful fits and often do not repeat.

Experiment: qHTS Primary assay for Inhibitors of Plasmodium falciparum Dd2 growth in vitro; note: nearly all actives have a fitted effect of over 65% in size
Conditions: P. falciparum Dd2 growth, SYBR Green, 72 h; series mostly up to 28.9 µM
Method in brief: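 Readout: SYBR Green fluorescence, 485 nm excitation, 535 nm emission, after ~16 h lysis at 37C. Before that, Dd2-infected red cells (2.5% hematocrit) grew 72 h with compound, 29 uM top final concentration.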
Potency is the fitted concentration of half-maximal effect; tags give direction and shape of the fitted curve.

For `COc1ccc(S(=O)(=O)NC[C@H]2O[C@@H](CO)[C@@H](O)[C@H]2N2CCc3ccccc3C2)cc1`, which Potency is on record?
The Potency was “inactive”.

For `Cc1cccc(OCC(=O)NCCn2ccn3nc(-c4ccc(C)c(C)c4)cc3c2=O)c1`, which Potency is on record?
The Potency was inconclusive: 10 µM [inhibitor, single point].

For `O=C(CCc1c[nH]c2ccccc12)NCC12CCCC=C1N(CC1CC1)C(=O)CC2` (stereo not drawn), which Potency is on record?
Its Potency is inconclusive: 15.8 µM [inhibitor, single point].

With `CNC(=O)CCn1ncc2cc(OC3CCc4cccc(-c5ccc(OC)cc5)c43)ccc21` (stereo not drawn) as the compound, how does the Potency read?
The Potency was inconclusive: 4.47 µM [inhibitor, single point].

For `CCOCCOC1CCN(C(=O)Nc2ccc(C(=O)OC)cc2)CC1`, which Potency is on record?
The Potency was inconclusive: 12.6 µM [inhibitor, partial curve, poor fit].

With `CCN(CC)S(=O)(=O)c1ccc2c(c1)N(CC(=O)N1CCN(c3ccc(OC)cc3)CC1)C(=O)CO2` as the compound, how does the Potency read?
The Potency was inconclusive: 17.8 µM [inhibitor, single point].

Which Potency does the source give for `O=C(NC1CCc2nnc(C3CC3)n2CC1)c1cc(C2CC2)[nH]n1` (stereo not drawn) here?
The Potency was inconclusive: 3.98 µM [inhibitor, single point].

Which Potency does the source give for `COc1ccccc1-c1ccc2ncc(Nc3ccnc(N4CCOCC4)c3)n2n1` here?
The Potency was inconclusive: 5.62 µM [inhibitor, single point].

For `CNC(=O)[C@@H]1C[C@H](Oc2cccnc2)CN1C(=O)CCCc1ccccc1`, which Potency is on record?
The Potency was “inactive”.

For `O=C(Nc1cccc(C(F)(F)F)c1)N[C@H]1CO[C@H]2[C@@H]1OC[C@@H]2Nc1nccc(-c2ccc(-c3ccccc3)cc2)n1`, which Potency is on record?
The Potency was inconclusive: 10 µM [inhibitor, partial curve, poor fit].

For `CCOC(=O)C1CCN(C(=O)Cc2cccn2-c2cccc(Cl)c2)CC1`, which Potency is on record?
Its Potency is “inactive”.

With `COCCOC1CCOC2(CCN(C(=O)Cc3cccc(C)c3)CC2)C1` (stereo not drawn) as the compound, how does the Potency read?
Its Potency is inconclusive: 10 µM [inhibitor, partial curve, poor fit].

With `Cc1ccc(Cl)cc1N1CCN(C(=O)CN2C(=O)COc3ccc(S(=O)(=O)N4CCCCCC4)cc32)CC1` as the compound, how does the Potency read?
The Potency was inconclusive: 11.2 µM [inhibitor, single point].

Which Potency does the source give for `CN(Cc1ccc2nonc2c1)Cc1ccccc1OCC(O)CN1CCCCC1` (stereo not drawn) here?
Its Potency is inconclusive: 10 µM [inhibitor, partial curve, poor fit].

With `CCn1c2ccccc2c2cc(CN3CCN(Cc4cc(OC)c(O)c(OC)c4)CC3)ccc21` as the compound, how does the Potency read?
Its Potency is active: 11.2 µM.

For `COc1ccc(Cn2c(C3CCN(C(=O)c4ccc(F)c(F)c4)CC3)n[nH]c2=O)cc1`, which Potency is on record?
Its Potency is inconclusive: 17.8 µM [inhibitor, single point].

For `O=C(NCc1cccc(Cl)c1)C1CN(c2ccc(F)cc2)C(=O)N1` (stereo not drawn), which Potency is on record?
The Potency was inconclusive: 2.82 µM [inhibitor, partial curve, poor fit].

For `Cc1ccc(N(Cc2cccs2)C(=O)C(C)Oc2ccc(Cl)c(C)c2)cc1` (stereo not drawn), which Potency is on record?
Its Potency is inconclusive: 1.41 µM [inhibitor, partial curve].

Which Potency does the source give for `Cn1ccc2c(C(=O)NCC3CCOCC3)nc(-c3cccc(N4CCOCC4)c3)cc21` here?
Its Potency is inconclusive: 31.6 µM [inhibitor, single point].

For `COc1ccc(Nc2cnc3ccc(-c4ccccc4)nn23)cn1`, which Potency is on record?
Its Potency is inconclusive: 2.51 µM [inhibitor, partial curve, poor fit].

Which Potency does the source give for `O=C1CCC2(CCN1CC1CC1)CCN(C(=O)C1CC=CC1)CC2` here?
The Potency was “inactive”.

Which Potency does the source give for `CCOc1ccc(C(=O)Nc2cc(-c3nc4cc(OC)ccc4o3)ccc2C)cc1[N+](=O)[O-]` here?
The Potency was “inactive”.

Which Potency does the source give for `CCn1c(=O)n(-c2ccc3c(c2)OCO3)c2nc(-c3ccc(C(C)C)cc3)nc(C(N)=O)c21` here?
The Potency was inconclusive: 2.24 µM [inhibitor, full curve].

Which Potency does the source give for `O=C(Nc1cccc(Cl)c1)C1CCCN(c2nn3cc(-c4ccc(F)cc4)nc3s2)C1` (stereo not drawn) here?
The Potency was inconclusive: 12.6 µM [inhibitor, single point].

Which Potency does the source give for `CC(C)c1ccc(NC(=O)O[C@@H]2CO[C@H]3[C@@H]2OC[C@@H]3NS(=O)(=O)c2cccs2)cc1` here?
The Potency was active: 2.24 µM.

With `O=C(CC1CCCC1)N1CCCC(c2noc(COc3ccccc3)n2)C1` (stereo not drawn) as the compound, how does the Potency read?
The Potency was inconclusive: 5.01 µM [inhibitor, partial curve, poor fit].

For `CCOc1ccccc1N1CCN(Cc2ccc(=O)n(CC)c2)CC1`, which Potency is on record?
Its Potency is “inactive”.

Which Potency does the source give for `CCOc1ccc(C(=O)c2cn(CC(=O)Nc3ccc4c(c3)OCO4)c3ccc(OC)cc3c2=O)cc1` here?
Its Potency is inconclusive: 11.2 µM [inhibitor, single point].

With `COC(=O)C1=C(C)N=C2SC=C(CC(=O)NCc3ccccc3F)N2C1c1ccccc1Cl` (stereo not drawn) as the compound, how does the Potency read?
Its Potency is active: 11.2 µM.

Which Potency does the source give for `COCCn1cnc2ccc(-c3ccccc3)nc2c1=O` here?
The Potency was inconclusive: 0.631 µM [inhibitor, full curve, poor fit].

For `O=C(CSc1nc2ncccc2[nH]1)Nc1cc(F)ccc1F`, which Potency is on record?
Its Potency is inconclusive: 7.94 µM [inhibitor, partial curve, poor fit].

Which Potency does the source give for `O=C(c1ccsc1)N1CCN(C(=O)c2nnn3c2COC(c2ccccc2)C3)CC1` (stereo not drawn) here?
Its Potency is “inactive”.

For `COCCN1CCCC2(CCN(C(=O)C3(C)CCCCC3)C2)C1=O` (stereo not drawn), which Potency is on record?
The Potency was “inactive”.

Which Potency does the source give for `Cc1ccc(C)c(C(=O)NC2CCN(C(=O)c3cc4c(=O)[nH]c(C)cn4n3)CC2)c1` here?
Its Potency is “inactive”.

For `COc1ccccc1-c1cn2c(n1)CO[C@@H](CNC(=O)COc1ccccc1)C2`, which Potency is on record?
The Potency was inconclusive: 11.2 µM [inhibitor, partial curve].

With `CN(Cc1ccc(N2CCCCC2)cc1)C(=O)CCC[C@H]1NC[C@@H]2C[C@H]1CN(Cc1ccccc1)C2` as the compound, how does the Potency read?
The Potency was active: 4.47 µM.

Which Potency does the source give for `CC1CCCCN1CCCNC(=O)c1cc(Sc2cccc(Cl)c2)nc2ccccc12` (stereo not drawn) here?
Its Potency is inconclusive: 17.8 µM [inhibitor, single point].

With `O=C(CN1Cc2nc(-c3cc4ccccc4o3)ccc2OCC1=O)N1CCCC1` as the compound, how does the Potency read?
The Potency was “inactive”.

With `Cc1nn(CCC#N)c(C)c1[C@@H]1C=C[C@@H](NC(=O)c2cccs2)C1` as the compound, how does the Potency read?
Its Potency is inconclusive: 10 µM [inhibitor, partial curve].

Which Potency does the source give for `O=c1n(-c2ccc([N+](=O)[O-])cc2)nc2n1CCN(Cc1ccc(OC(F)(F)F)cc1)C2` here?
Its Potency is inconclusive: 20 µM [inhibitor, single point].

Which Potency does the source give for `Cc1cnc(CCNC(=O)Nc2ccccc2F)n1C1CCC1` here?
Its Potency is active: 4.47 µM.

Which Potency does the source give for `CC(C)CC(=O)N1CCC2(CC1)CN(Cc1ccccc1)CC2CO` (stereo not drawn) here?
Its Potency is inconclusive: 17.8 µM [inhibitor, single point].

For `O=c1c2nc(-c3ccccc3)ccc2ncn1-c1ccc(F)cc1F`, which Potency is on record?
The Potency was “inactive”.

Which Potency does the source give for `Cc1c(C(=O)OCCOc2ccccc2)[nH]c2c1C(=O)CC(c1ccc(C(C)(C)C)cc1)C2` (stereo not drawn) here?
Its Potency is active: 3.98 µM.

With `CCn1c2c(c(=O)n3ncc(C(=O)Nc4cc(Cl)ccc4OC)c13)CN(Cc1ccc(OC)cc1)CC2` as the compound, how does the Potency read?
Its Potency is inconclusive: 17.8 µM [inhibitor, single point].

For `O=C1N(Cc2ccccn2)C[C@H]2CN(Cc3ccc(C(F)(F)F)cc3)CCN12`, which Potency is on record?
The Potency was inconclusive: 35.5 µM [inhibitor, single point].

For `Cc1cccc(CN2CCCN(Cc3ccncc3)C(c3ccccc3)CC(=O)NCC2)c1` (stereo not drawn), which Potency is on record?
The Potency was active: 1.26 µM.

Which Potency does the source give for `CCNC(=O)N1CCCN(Cc2ccncc2)C(c2ccccc2)CC(=O)NCC1` (stereo not drawn) here?
Its Potency is inconclusive: 10 µM [inhibitor, single point].

For `Cc1cccc(NC(=O)CSc2nc3ccc(NC(=O)COc4ccccc4C)cc3s2)c1`, which Potency is on record?
The Potency was inconclusive: 17.8 µM [inhibitor, single point].

Which Potency does the source give for `O=C1NC2(CCN([S+](=O)([O-])c3ccccc3)C2)Oc2ccccc21` (stereo not drawn) here?
Its Potency is inconclusive: 6.31 µM [inhibitor, partial curve].

For `CC(C)c1nc2cc(C(=O)N3CCCC(c4ccccc4)C3)ccc2o1` (stereo not drawn), which Potency is on record?
Its Potency is inconclusive: 10 µM [inhibitor, single point].

Which Potency does the source give for `O=C1[C@@H]2C[C@@H](CN2Cc2ccccc2)Oc2ccccc2N1CC1CC1` here?
Its Potency is inconclusive: 14.1 µM [inhibitor, partial curve, poor fit].

For `Cc1cc(C(=O)N2C[C@@H](CO)[C@H](c3ccncc3)C2)on1`, which Potency is on record?
Its Potency is inconclusive: 3.98 µM [inhibitor, single point].

For `CCCCc1cc(=O)oc2cc(C)c3c(C(C)(C)C)coc3c12`, which Potency is on record?
The Potency was inconclusive: 15.8 µM [inhibitor, partial curve, poor fit].

Which Potency does the source give for `CN(C)c1cccc(C(=O)NCC2CCN(c3cc(-c4ccccc4)[nH]n3)CC2)c1` here?
The Potency was inconclusive: 10 µM [inhibitor, single point].

With `COc1ccc(C)cc1NC(=O)N1CCN(S(=O)(=O)c2ccc3c(ccn3C)c2)CC1` as the compound, how does the Potency read?
Its Potency is inconclusive: 3.98 µM [inhibitor, partial curve, poor fit].

With `CCn1c(C2CCCNC2)nn(Cc2csc(-c3ccccc3)n2)c1=O` (stereo not drawn) as the compound, how does the Potency read?
Its Potency is inconclusive: 11.2 µM [inhibitor, partial curve, poor fit].

With `O=C(c1cc(F)ccc1F)N1CCC(Oc2ncccc2C(=O)N2CCCCC2)C1` (stereo not drawn) as the compound, how does the Potency read?
The Potency was inconclusive: 20 µM [inhibitor, single point].

Which Potency does the source give for `COc1ccc(NC(=O)c2nc(S(C)(=O)=O)ncc2N(Cc2ccc(C)cc2)Cc2ccco2)cc1Cl` here?
Its Potency is active: 10 µM.

For `O=C1COc2ccc(OCC3CC3)nc2CN1Cc1ccccc1`, which Potency is on record?
The Potency was “inactive”.

With `COc1ccc(-c2cc(N3CCN(C(=O)c4ccc(C#N)cc4)CC3)n[nH]2)cc1` as the compound, how does the Potency read?
Its Potency is inconclusive: 3.16 µM [inhibitor, single point].

With `CS(=O)(=O)N(Cc1ccccc1)c1ccc(C(=O)Nc2cccc(Cl)c2)cc1` as the compound, how does the Potency read?
The Potency was inconclusive: 17.8 µM [inhibitor, single point].

Which Potency does the source give for `Cc1ccc2nc(C(=O)N(C)Cc3cc(-c4cccnc4)no3)cn2c1` here?
Its Potency is inconclusive: 2.51 µM [inhibitor, full curve, poor fit].
